In PubChem BioAssay AID463173 (ICCB-Longwood Screening Facility, Harvard Medical School, 2010):
About 4,300 (8.3%) of roughly 52,000 compounds were called active. No stated cut-off is given here; in the data, active means survival mostly below about 52% (no sharp cut-off); inactive means mostly above about 56%. Some of the results follow.

What follows are compounds tested on DeltatarO mutant (assay: growth inhibition of S. aureus wild type versus tarO mutant, primary screen, teichoic acid synthesis inhibitors, RN4220, OD600 (AID 463173)). Settings: OD600, 18 h, active compounds read low, screened at 18.75 µg/mL (by protocol).

SMILES | survival
Cc1cccc(N2CCN(C(=O)CS(=O)(=O)Cc3nc(-c4ccccc4C)oc3C)CC2C)c1 (centres undefined) | inactive: 55%
O=S(=O)(NCc1nc2cccnc2n1Cc1ccccc1Cl)c1ccc(F)c(Cl)c1 | inactive: 87%
CC(=O)c1c(C)oc2c1cc(NS(=O)(=O)c1ccc(Cl)c(C)c1)c1ccccc12 | inactive: 70%
Cc1cccc(C(=O)N=Nc2c(O)[nH]c3ccc(C)cc23)c1 | inactive: 78%
Cc1ccc(-c2nc(CCNC(=O)C(=O)Nc3ccc(C)c(C)c3)cs2)cc1 | active: 20%
Cc1ccc(C)n1-c1nnc(N2CCC(C(=O)NCc3ccccc3Cl)CC2)s1 | inactive: 95%
CCC(c1nnnn1Cc1ccccc1)N1CCN(c2cccc(C)c2C)CC1 (centres undefined) | inactive: 105%
COc1ccc(S(=O)(=O)N(Cc2nc(-c3ccc(C)cc3)no2)C2CCCCC2)cc1 | inactive: 63%
CCc1ccc(-n2c(=O)c3c4c(sc3n(Cc3ccc(F)cc3)c2=O)CCCC4)cc1 | inactive: 42%
COc1ccc(CNC(=O)c2cccc(N3CCCS3(=O)=O)c2)cc1 | inactive: 83%
O=C1[C@@H]2CSC(c3ccc(F)cc3)N2C(=O)N1c1ccc(Cl)cc1 (some centres undefined) | inactive: 76%
O=C(Cn1c(=O)n2nc(-c3ccccc3)nc2c2ccccc21)Nc1ccccc1C(F)(F)F | inactive: 86%
COc1cccc(C(=O)N2CC(C)OC(C)C2)c1 (centres undefined) | inactive: 65%
Cc1ccc2oc(=O)c3cnn(CC(=O)NCc4ccccc4Cl)c3c2c1 | inactive: 73%
Cc1ccc(N2CCN(c3nc4ccc(C)cc4n4nnnc34)CC2)c(C)c1 | inactive: 87%
Cc1ccc(NC2=C(c3ccc(C(F)(F)F)cc3)C(=O)c3ccccc32)cc1F | active: 28%
CCOc1ccccc1NC(=O)CSc1nc2ccccc2c2nc(CCn3cncc3C)nn12 | inactive: 99%
O=C(NCC(c1cccnc1)N1CCc2ccccc21)c1ccccc1Br (centres undefined) | inactive: 56%
CCCN(CCC)C(=O)Cn1c(=O)n(-c2cccc(C(F)(F)F)c2)c(=O)c2c(C)c(C)sc21 | inactive: 44%
O=C(Cn1c(=O)n(Cc2ccco2)c(=O)c2cccnc21)Nc1ccccc1F | inactive: 88%
O=C(Nc1ccc2nc(SCC(=O)N3CCCC3)sc2c1)c1ccccc1 | inactive: 83%
CCOc1cc(C(=O)Nc2ccc(-c3nc4cc(C)ccc4o3)cc2)cc(OCC)c1OCC | active: 27%
COc1cc2c(-c3ccccc3C)nc3c(c(C)nn3-c3ccccc3)c2cc1OC | active: 35%

SMILES | survival
CCCCC12CN3CC(C)(CN(C1)C3c1cc(Br)ccc1O)C2=O (centres undefined) | inactive: 72%
COc1ccc(NC(=O)c2ccc3nc(CCc4ccccc4)oc3c2)cc1 | inactive: 106%
CCOC(=O)CNC(=O)Nc1cc(C(=O)NCc2cccc(F)c2)ccc1N1CCCC1 | inactive: 74%
COc1ccc(NC(=O)C(NC(=O)c2ccccc2NC(=O)c2ccco2)C(C)C)cc1 (centres undefined) | inactive: 83%
CS(=O)(=O)c1ccc2nc(NC(=O)CS(=O)(=O)c3ccc(Cl)cc3)sc2c1 | inactive: 77%
COc1ccccc1NC(=O)C1CCCN(c2nnc(C)c3c(C)n(-c4ccccc4)nc23)C1 (centres undefined) | inactive: 84%
Cc1csc2nc(COC(=O)c3ccc(NC(=O)COc4ccccc4F)cc3)cc(=O)n12 | inactive: 130%
CC1=C(C(=O)OCC2CCCCC2)C(c2ccc(F)cc2F)CC(=O)N1 (centres undefined) | inactive: 90%
COc1ccccc1CNC(=O)C(=O)NCC(c1cccs1)S(=O)(=O)c1ccc(F)cc1 (centres undefined) | inactive: 80%
Cc1ccc(CNC(=O)C2CCN(S(=O)(=O)N3CCC(C)CC3)CC2)cc1 | inactive: 91%
Oc1c(C(c2ccccc2)N2CCN(Cc3ccccc3)CC2)sc2nc(-c3ccco3)nn12 (centres undefined) | active: 37%
Cc1ccc(S(=O)(=O)Nc2nc(O)c(C3=c4ccccc4=NC3=O)s2)cc1 | inactive: 75%
CCc1ccc(NC(=O)CC2C(=O)N(c3cccc(C)c3)C(=O)N2Cc2cccs2)cc1 (centres undefined) | active: 20%
Cc1ccc(OCC(=O)Nc2c(C(=O)c3ccccc3)oc3ccccc23)cc1C | inactive: 92%
COc1ccc(CNC(=O)Cn2c(SCC(=O)N(C)c3ccccc3)nc3ccccc32)cc1 | inactive: 77%
CCCCn1c(=O)n(-c2ccc(Br)cc2F)c(=O)c2c3c(sc21)CN(C(C)=O)CC3 | inactive: 68%
CCOC(=O)c1noc2nc(C)n(CC(=O)Nc3cc(Cl)ccc3OC)c(=O)c12 | inactive: 109%
COc1cc(C(=O)Nc2ccc3nn(-c4ccc(F)cc4)nc3c2)cc(OC)c1OC | active: 45%
CCOc1ccccc1NC(=O)C(C)Sc1cc(-c2ccccc2)nc(C)n1 (centres undefined) | inactive: 59%
Cn1c(=O)cc(SCC(=O)NCc2ccc(F)cc2)c2ccc(Cl)cc21 | inactive: 91%
COc1ccc(-c2nnc(SCC(=O)Nc3cccc(F)c3)s2)cc1 | inactive: 83%
COC(=O)C1=CN(C2CC2)C=C(C(=O)OC)C1c1ccsc1 | active: 60%
O=C1CCN(Cc2ccccc2)C(=S)N1 | active: 49%

SMILES | survival
COc1cc(Cl)c(C)cc1NC(=O)CCc1nc2cccnc2n1-c1ccccc1 | inactive: 75%
CC(=O)Nc1nnc(SCc2cc(=O)c3cc(C)ccc3[nH]2)s1 | inactive: 73%
CC1=C(C(=O)Nc2ccccc2)C(c2ccccc2)n2nc(-c3ccco3)nc2N1 (centres undefined) | inactive: 77%
COc1ccc(NC(=O)Cn2c(SCc3cccc(Cl)c3)nc3ccncc32)c(OC)c1OC | inactive: 57%
CCn1c(C(=O)N2CCC(C(=O)N3CCN(c4cccc(C)c4C)CC3)CC2)cc2sccc21 | inactive: 55%
CC(=O)N=c1cccc(NC(C)=O)n1O | inactive: 103%
CCOc1ccc2nc(N3CCN(C(=O)CS(=O)(=O)c4ccc(F)cc4)CC3)sc2c1 | inactive: 73%
CCN1c2ccccc2-n2cccc2C12CCN(C(=O)Nc1ccccc1C(F)(F)F)CC2 | inactive: 102%
CCOc1ccc(CNC(=O)Cn2c(=O)c3cccn3c3ccc(F)cc32)cc1 | inactive: 80%
CCOc1ccc(OCC)c(NC(=O)C2CCCN(S(=O)(=O)c3ccc4c(c3)oc(=O)n4C)C2)c1 (centres undefined) | inactive: 95%
Cc1cccc(-c2nc(SCCCOc3ccccc3Cl)n3[nH]c(=O)cc3n2)c1 | inactive: 57%
C#CCNc1c2c(nc3nnnn13)CCCC2 | inactive: 84%
O=C(Nc1ccc(F)c(Cl)c1)N1CCN(C(=O)c2nsc3ccccc23)CC1 | inactive: 68%
Cc1cc(C)cc(-n2c(SCC(=O)N3CCc4ccccc43)nc3c([nH]c4ccccc43)c2=O)c1 | inactive: 55%
CC(=O)Nc1ccc(Nc2ncnc3c2c(-c2ccccc2)cn3-c2ccccc2)cc1 | inactive: 125%
c1ccc(CNc2nc3ccccc3c3nc(-c4ccccc4)nn23)cc1 | inactive: 54%
Cn1c(=O)c2nc(SCC(=O)Nc3cc(Cl)ccc3Cl)n(C)c2n(C)c1=O | inactive: 89%
NC(=O)CSc1nc2c(oc3ccccc32)c(=O)n1-c1ccccc1F | inactive: 59%
COc1ccc(Cl)cc1NC(=O)N1CCC(CN2CCc3ccccc3C2)CC1 | inactive: 109%
O=c1c2cc3c(cc2nc2sc(Nc4ccc(F)cc4F)nn12)OCO3 | inactive: 56%
Cn1nc(C(=O)N2CCN(c3ccc(Cl)cc3)CC2)c2c1-c1ccccc1SC2 | inactive: 82%
Cc1ccc(NC(=O)Cn2nnnc2-c2ccccc2N)cc1 | inactive: 73%
CCN(CC)C(=O)CSc1nc2cccnc2n1C | inactive: 74%

SMILES | survival
O=C(C1CCCN(S(=O)(=O)c2cccs2)C1)N1CCN(c2cccc(Cl)c2)CC1 (centres undefined) | inactive: 89%
Cc1ccc(C)c(N2CCN(c3ncnc4c3nc3n4CCCCC3)CC2)c1 | inactive: 91%
COc1ccc(Nc2cc(C(=O)NCCc3ccccc3)c3ccccc3n2)cc1OC | inactive: 99%
COc1ccc(OCCn2c(C3CC(=O)N(c4ccc(F)cc4)C3)nc3ccccc32)cc1 (centres undefined) | active: 59%
COc1ccccc1Nc1cc(C)nc2nc(-c3ccccc3)nn12 | inactive: 55%
Cc1ccc(CNC(=O)Cn2ncc3c(C)n(Cc4ccc(Cl)cc4)c(C)c3c2=O)cc1 | inactive: 64%
CCCCOC(=O)c1ccc(NS(=O)(=O)c2c(C)nc3scc(C)n3c2=O)cc1 | active: 43%
CCCN(C(=O)Cn1ncc2c(=O)oc3ccccc3c21)c1cccc(C)c1 | inactive: 79%
Cc1ccc(NC(=O)c2c(N3CCCC3=O)c3cc(C)ccc3n2C)c(C)c1 | inactive: 79%
COc1ccc2[nH]c(=O)c(CN(Cc3ccco3)C(=S)NC3CCCCC3)cc2c1 | inactive: 77%
CCC(C)NC(=O)Cn1c(=O)n(Cc2ccc(C(=O)NCCCOC)cc2)c(=O)c2ccccc21 (centres undefined) | inactive: 90%
O=C(NC1CCCCC1)O/N=C/c1ccc(F)cc1 | inactive: 95%
CCc1ccc(-n2nc3cc(C)c(NC(=O)c4cc(Cl)ccc4OC)cc3n2)cc1 | inactive: 86%
Cc1ccc(NC(=O)c2ccc(NC(=O)N3CCSc4ncccc43)cc2)cc1Cl | inactive: 109%
O=C(NCc1ccccc1)C(c1ccc(F)cc1)N(Cc1ccco1)C(=O)c1ccccn1 (centres undefined) | inactive: 81%
O=C(Cn1cc(S(=O)(=O)Cc2ccc(F)cc2)c2ccccc21)NCCc1ccccc1 | inactive: 87%
Cc1ccc2c(=O)cc(C(=O)Nc3sc4c(c3C(=O)NCc3ccco3)CCC4)oc2c1C | inactive: 78%
Cc1ccccc1CNC(=O)c1c(C)oc2c1C1=NCCN1C=N2 | inactive: 77%
Cc1ccccc1Cn1cc(S(=O)(=O)c2ccc(Cl)cc2)c(=O)c2cc3c(cc21)OCO3 | inactive: 73%
Cc1c(NC(=O)c2nc3ccccc3n(C)c2=O)cccc1[N+](=O)[O-] | inactive: 82%
